Measurements published in paper PMC4336329 (PLoS ONE, 2015).
Hit rate of the full screen: of about 310,000 compounds, about 2,200 (0.71%) showed an effect of 50% or more. The effect is printed as a negative number. The list shows a part of the results.

Molecular target: human ether-à-go-go-related gene (hERG) potassium channel (human, UniProt Q12809)
Test: primary screen, population patch clamp on CHO cells stably expressing hERG

Chain of human ether-à-go-go-related gene (hERG) potassium channel (Q12809 whole entry, looked up): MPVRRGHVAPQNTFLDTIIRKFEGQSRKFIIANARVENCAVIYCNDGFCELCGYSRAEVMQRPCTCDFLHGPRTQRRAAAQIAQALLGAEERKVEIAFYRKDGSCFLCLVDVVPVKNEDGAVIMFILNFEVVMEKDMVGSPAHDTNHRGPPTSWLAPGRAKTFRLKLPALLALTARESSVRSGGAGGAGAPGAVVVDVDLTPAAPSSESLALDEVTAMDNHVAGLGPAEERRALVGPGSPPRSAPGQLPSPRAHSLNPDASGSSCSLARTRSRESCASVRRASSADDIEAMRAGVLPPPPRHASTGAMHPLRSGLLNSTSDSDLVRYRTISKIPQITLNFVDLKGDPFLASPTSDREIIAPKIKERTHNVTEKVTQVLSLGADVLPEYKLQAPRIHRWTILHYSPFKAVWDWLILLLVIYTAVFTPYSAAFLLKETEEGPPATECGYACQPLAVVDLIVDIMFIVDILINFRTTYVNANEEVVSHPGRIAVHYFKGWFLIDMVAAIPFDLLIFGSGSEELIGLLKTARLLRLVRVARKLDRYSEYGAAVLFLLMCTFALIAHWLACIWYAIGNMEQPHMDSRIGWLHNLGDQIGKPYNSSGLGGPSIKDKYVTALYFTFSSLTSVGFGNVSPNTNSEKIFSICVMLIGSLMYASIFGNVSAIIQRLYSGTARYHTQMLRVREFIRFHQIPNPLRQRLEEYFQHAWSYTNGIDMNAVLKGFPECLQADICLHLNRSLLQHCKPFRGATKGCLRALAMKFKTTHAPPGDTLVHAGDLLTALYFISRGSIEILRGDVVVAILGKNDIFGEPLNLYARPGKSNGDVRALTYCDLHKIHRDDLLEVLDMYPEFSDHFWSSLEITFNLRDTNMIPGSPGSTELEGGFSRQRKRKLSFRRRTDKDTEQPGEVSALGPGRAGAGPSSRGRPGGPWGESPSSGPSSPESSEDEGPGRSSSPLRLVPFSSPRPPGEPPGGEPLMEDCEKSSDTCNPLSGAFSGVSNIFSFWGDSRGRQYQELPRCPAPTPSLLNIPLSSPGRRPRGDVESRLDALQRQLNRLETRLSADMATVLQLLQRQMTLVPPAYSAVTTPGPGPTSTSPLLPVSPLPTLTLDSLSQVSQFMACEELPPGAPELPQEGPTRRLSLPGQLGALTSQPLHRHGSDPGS

Row | SMILES | hERG current change (%, negative = inhibition) at 1uM [%]
1 | Cc1cccc(NC(=O)CSc2nnc(CNC(=O)c3ccc(S(=O)(=O)N(C)C)cc3)n2-c2ccccc2)c1 | 1.08
2 | COc1cc(C(=S)N2CCN(C)CC2)ccc1OCC(=O)NCc1ccccc1 | 16
3 | Cc1ccc(N(CC(=O)NCc2ccco2)C(=O)CCC(=O)Nc2nccs2)cc1 | 8.45
4 | O=CN1CCCN(Cc2nc(-c3cccc(Cl)c3)no2)CC1 | 4.03
5 | Clc1ccc(-c2noc(CN3CCOCC3)n2)cc1 | 12.6
6 | Cc1ccc(C(=O)Nc2nc(-c3ccccc3)c(-c3ccccc3)o2)cc1 | -0.531
7 | Cc1noc(C)c1S(=O)(=O)Nc1cc(C(F)(F)F)ccc1N1CCOCC1 | 11.7
8 | Cc1ccc(-n2c(=O)c3c(n4cnnc24)-c2ccccc2CC32CCCCC2)cc1 | 4.46
9 | O=C1NC(=O)C(=CN2CCc3ccccc32)C(=O)N1 | 11.2
10 | COc1cc(OC)cc(C(=O)NC(=S)Nc2cc3oc4ccccc4c3cc2OC)c1 | 5.32
11 | O=C(Nc1ccccc1)c1ccc(S(=O)(=O)N2CCOCC2)cc1 | 17.9
12 | COc1ccc(NC(=O)CN(C)C(=O)c2ccc(C)s2)cc1 | 9.17
13 | O=C(CCNC(=O)c1ccc(Br)cc1)NCc1ccco1 | 8.04
14 | Cc1ccc(S(=O)(=O)NCCNC(=O)c2ccccc2)cc1 | 15.8
15 | CC1(C)c2[nH]c3ccccc3c2C[C@H]2C(=O)N(Cc3ccc(F)cc3)C(=O)N21 | 13.2
16 | COC(=O)c1ccc(NC(=S)NC(=O)C2CCC2)cc1 | 22
17 | COc1ccccc1C(=O)COC(=O)Cc1n[nH]c(=O)c2ccccc12 | 5.93
18 | CCN(CC)Cc1cc(NC2=NS(=O)(=O)c3ccccc32)ccc1OC(=O)C(C)C.Cl | 5.53
19 | O=C(Nc1c(F)c(F)c(F)c(F)c1F)C1CCCCC1 | 5.93
20 | CC(C)c1onc(C(=O)NCc2cccs2)c1[N+](=O)[O-] | 8.86
21 | CC(=O)OC1N=C(c2ccccc2)c2ccccc2NC1=O (stereo not shown) | 13.3
22 | CC(Sc1ccccc1)C(=O)NN=C1CCCCCCC1 (stereo not shown) | 7.58
23 | Cc1cccc(-n2cnc3c(c2=O)c2nc4ccccc4nc2n3Cc2ccco2)c1 | -3.97
24 | Cc1ccc(C(=O)CCC(=O)NC2CCCC(C)C2C)cc1 (stereo not shown) | 10.4
25 | Cc1ccc(C(=O)NCC#N)cc1 | 11.3
